Laboratory results published in the supplement of paper PMC4604168 (melanoma cell lines).
This is one part of the list. Many values rest on one well or one pass, so single values are uncertain.

Key:
Assay in all cases: cell count relative to DMSO control; melanoma cells; higher = more viable cells
Conditions in all cases: library dose: standard library concentration; 72 h
[1] = tested on: SkMel28
[2] = tested on: SkMel2
[3] = tested on: SkMel30
[4] = tested on: SkMel5
[5] = tested on: UACC257
[6] = tested on: UACC62
[7] = tested on: WM115
[8] = tested on: WM1716
[9] = tested on: WM3526
[10] = tested on: WM1745
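Note: cells treated in 1,536-well plates, then fixed and DAPI-stained, with nuclei counted from automated high-throughput microscope images.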

Row | SMILES | cell count [1] [%] | cell count [2] [%] | cell count [3] [%] | cell count [4] [%] | cell count [5] [%] | cell count [6] [%] | cell count [7] [%] | cell count [8] [%] | cell count [9] [%] | cell count [10] [%]
1 | C[C@]12O[C@H](C[C@]1(O)CO)n1c3ccccc3c3c4c(c5c6ccccc6n2c5c31)CNC4=O [Lestaurtinib] + COc1ccc(COc2ccc(Cc3cnc(N)nc3N)cc2OC)cc1 [GW2580] (first compound 0.02 µM, partner dose 5 µM) | 76.4 | 106 | 74.7 | 72 | 88.8 | 83.3 | 108 | 92.7 | 68.9 | –
2 | C[C@]12O[C@H](C[C@]1(O)CO)n1c3ccccc3c3c4c(c5c6ccccc6n2c5c31)CNC4=O [Lestaurtinib] + N#Cc1c(O)c2c(-c3ccc(-c4ccccc4O)cc3)csc2[nH]c1=O [A769662] (first compound 0.02 µM, partner dose 10 µM) | 70.5 | 111 | 105 | 71.3 | 121 | 96.5 | 79.4 | 105 | 77.2 | –
3 | N.N.[Cl][Pt][Cl] [cisplatin] + C/C(O)=C(\C#N)C(=O)Nc1cc(Br)ccc1Br [LFM-A13] (first compound 8 µM, partner dose 10 µM) | 104 | 104 | 87.7 | 92.6 | 82 | 76.1 | 73.9 | 93 | 80.4 | –
4 | C[C@]12O[C@H](C[C@]1(O)CO)n1c3ccccc3c3c4c(c5c6ccccc6n2c5c31)CNC4=O [Lestaurtinib] + Cc1cc(SCc2sc(-c3ccc(C(F)(F)F)c(F)c3)nc2C)ccc1OCC(=O)O [GW0742] (first compound 0.02 µM, partner dose 10 µM) | 96.3 | 105 | 98.8 | 76 | 111 | 95.6 | 63.2 | 107 | 72.5 | –
5 | C[C@]12O[C@H](C[C@]1(O)CO)n1c3ccccc3c3c4c(c5c6ccccc6n2c5c31)CNC4=O [Lestaurtinib] + O=C(O)C(=O)Nc1sc2c(c1C(=O)O)CCNC2 [TCS401] (first compound 0.02 µM, partner dose 8.33333 µM) | 74.2 | 101 | 109 | 70.9 | 102 | 96.2 | 86.4 | 108 | 82.2 | –
6 | C[C@]12O[C@H](C[C@]1(O)CO)n1c3ccccc3c3c4c(c5c6ccccc6n2c5c31)CNC4=O [Lestaurtinib] + c1cc(-c2cnn3cc(-c4ccc(OCCN5CCCCC5)cc4)cnc23)ccn1 [Dorsomorphin] (first compound 0.02 µM, partner dose 2 µM) | 52.7 | 80.7 | 93.5 | 66.8 | 86.6 | 70.5 | 66.9 | 93.5 | 77.3 | –
7 | C[C@]12O[C@H](C[C@]1(O)CO)n1c3ccccc3c3c4c(c5c6ccccc6n2c5c31)CNC4=O [Lestaurtinib] + CO[C@@H]1[C@H](N(C)C(=O)c2ccccc2)C[C@H]2O[C@]1(C)n1c3ccccc3c3c4c(c5c6ccccc6n2c5c31)C(=O)NC4 [Midostaurin] (first compound 0.02 µM, partner dose 0.4 µM) | 45.6 | 73.3 | 65.9 | 47.3 | 73.7 | 72.1 | 54.2 | 73.7 | 67 | 37.7
8 | Cn1cc(C2=C(c3cn(C4CCN(Cc5ccccn5)CC4)c4ccccc34)C(=O)NC2=O)c2ccccc21 [Enzastaurin] + O=C(O)C(=O)Nc1sc2c(c1C(=O)O)CCNC2 [TCS401] (first compound 4 µM, partner dose 8.33333 µM) | 98 | 82.2 | 124 | 90.5 | 85.8 | 82 | 92.2 | 75.7 | 92.8 | –
9 | N.N.[Cl][Pt][Cl] [cisplatin] + COc1ccc(COc2ccc(Cc3cnc(N)nc3N)cc2OC)cc1 [GW2580] (first compound 8 µM, partner dose 5 µM) | 100 | 106 | 127 | 95.6 | 81.6 | 110 | 100 | 116 | 102 | –
10 | C[C@]12O[C@H](C[C@]1(O)CO)n1c3ccccc3c3c4c(c5c6ccccc6n2c5c31)CNC4=O [Lestaurtinib] + O=C(Nc1ccccc1)c1cc([N+](=O)[O-])ccc1Cl [GW9662] (first compound 0.02 µM, partner dose 10 µM) | 31.8 | 73.9 | 68.5 | 46.5 | 73.8 | 70.8 | 43.2 | 92.1 | 56.9 | –
11 | Cn1cc(C2=C(c3cn(C4CCN(Cc5ccccn5)CC4)c4ccccc34)C(=O)NC2=O)c2ccccc21 [Enzastaurin] + N#Cc1c(O)c2c(-c3ccc(-c4ccccc4O)cc3)csc2[nH]c1=O [A769662] (first compound 4 µM, partner dose 10 µM) | 92.8 | 86.2 | 96.2 | 100 | 110 | 92.1 | 128 | 82.6 | 104 | –
12 | N.N.[Cl][Pt][Cl] [cisplatin] + O=C(O)C(=O)Nc1sc2c(c1C(=O)O)CCNC2 [TCS401] (first compound 8 µM, partner dose 8.33333 µM) | 75.2 | 87.2 | 71.7 | 73.4 | 86.4 | 66.4 | 96.4 | 85 | 88.8 | –
13 | C[C@]12O[C@H](C[C@]1(O)CO)n1c3ccccc3c3c4c(c5c6ccccc6n2c5c31)CNC4=O [Lestaurtinib] + COc1cc(N2CCC(N3CCN(C)CC3)CC2)ccc1Nc1ncc(Cl)c(Nc2ccccc2S(=O)(=O)C(C)C)n1 [NVP-TAE684] (first compound 0.02 µM, partner dose 0.4 µM) | 50.4 | 55.9 | 55.4 | 61.1 | 80.4 | 63.2 | 65.2 | 83.8 | 50.9 | –
14 | C[C@]12O[C@H](C[C@]1(O)CO)n1c3ccccc3c3c4c(c5c6ccccc6n2c5c31)CNC4=O [Lestaurtinib] + O=C(Oc1ccc([N+](=O)[O-])cc1)N1CCC(C(O)(c2ccc3c(c2)OCO3)c2ccc3c(c2)OCO3)CC1 [JZL184] (first compound 0.02 µM, partner dose 5 µM) | 68.9 | 83.5 | 79.3 | 59.6 | 86.2 | 70.4 | 77.5 | 80.8 | 63.2 | –
15 | C[C@]12O[C@H](C[C@]1(O)CO)n1c3ccccc3c3c4c(c5c6ccccc6n2c5c31)CNC4=O [Lestaurtinib] + Cn1cc(/C=C2\C(=O)Nc3cccnc32)c2ccccc21 [GW441756] (first compound 0.02 µM, partner dose 2 µM) | 87.1 | 112 | 86.9 | 73.9 | 86.4 | 73.1 | 82.5 | 104 | 73.4 | –
16 | N.N.[Cl][Pt][Cl] [cisplatin] + CC(C)CCN1c2nc(Nc3cc(F)c(O)c(F)c3)ncc2N(C)C(=O)C1C [BID1870] (first compound 8 µM, partner dose 1 µM) | 83.7 | 89.7 | 93.3 | 110 | 71.1 | 75.9 | 90.7 | 80.8 | 71.1 | –
17 | C[C@]12O[C@H](C[C@]1(O)CO)n1c3ccccc3c3c4c(c5c6ccccc6n2c5c31)CNC4=O [Lestaurtinib] + C/C(O)=C(\C#N)C(=O)Nc1cc(Br)ccc1Br [LFM-A13] (first compound 0.02 µM, partner dose 10 µM) | 51.9 | 93.8 | 81.5 | 68.5 | 82.7 | 73.5 | 74.8 | 79.2 | 65.5 | –
18 | C[C@]12O[C@H](C[C@]1(O)CO)n1c3ccccc3c3c4c(c5c6ccccc6n2c5c31)CNC4=O [Lestaurtinib] + COc1cc2ncnc(Nc3ccc(Oc4ccccc4)cc3)c2cc1OC [SrcI1] (first compound 0.02 µM, partner dose 10 µM) | 50.2 | 92.1 | 72.2 | 50.1 | 75.6 | 49.1 | 50.6 | 84.4 | 58.4 | –
19 | Cn1cc(C2=C(c3cn(C4CCN(Cc5ccccn5)CC4)c4ccccc34)C(=O)NC2=O)c2ccccc21 [Enzastaurin] + COc1cc2ncnc(Nc3ccc(Oc4ccccc4)cc3)c2cc1OC [SrcI1] (first compound 4 µM, partner dose 10 µM) | 69.2 | 99.7 | 99.8 | 62.9 | 74.8 | 63.8 | 103 | 57.6 | 85 | –
20 | N.N.[Cl][Pt][Cl] [cisplatin] + O=c1cc(-c2cccc3c2Sc2ccccc2S3)oc(N2CCOCC2)c1 [KU55933] (first compound 8 µM, partner dose 5 µM) | 96.1 | 73.9 | 91 | 94 | 97.7 | 79.8 | 112 | 82.1 | 77.3 | –
21 | C[C@]12O[C@H](C[C@]1(O)CO)n1c3ccccc3c3c4c(c5c6ccccc6n2c5c31)CNC4=O [Lestaurtinib] + Oc1cc(-c2nc(-c3ccccc3)[nH]c2-c2ccncc2)ccc1Cl [L779450] (first compound 0.02 µM, partner dose 1 µM) | 34.2 | 12.9 | 73.1 | 47.8 | 90.3 | 49.1 | 51.5 | 73 | 38.9 | –
22 | Cn1cc(C2=C(c3cn(C4CCN(Cc5ccccn5)CC4)c4ccccc34)C(=O)NC2=O)c2ccccc21 [Enzastaurin] + O=C(Oc1ccc([N+](=O)[O-])cc1)N1CCC(C(O)(c2ccc3c(c2)OCO3)c2ccc3c(c2)OCO3)CC1 [JZL184] (first compound 4 µM, partner dose 5 µM) | 69.3 | 55.4 | 82 | 92.5 | 85.9 | 39.2 | 113 | 65.5 | 90.8 | –
23 | Cn1cc(C2=C(c3cn(C4CCN(Cc5ccccn5)CC4)c4ccccc34)C(=O)NC2=O)c2ccccc21 [Enzastaurin] + CC(C)CCN1c2nc(Nc3cc(F)c(O)c(F)c3)ncc2N(C)C(=O)C1C [BID1870] (first compound 4 µM, partner dose 1 µM) | 78.3 | 55.6 | 90.5 | 63.6 | 78.7 | 63.6 | 104 | 11.7 | 64.5 | –
